# Experimental data taken from PubChem BioAssay AID504339 (National Center for Advancing Translational Sciences (NCATS), 2011).
# In all, about 390,000 compounds went through this assay and about 17,000 (4.4%) were called active. The shares of active, inactive and inconclusive entries below differ from those in the screen. Calls follow the shape of the dose curve; as a rule, active = well fitted inhibition curve with a large enough effect; inconclusive = small, poorly fitted or top-dose-only effect; inactive = no such curve, though single readings can be large or run the other way. Potencies beside an inconclusive call are fits to weak or partial responses and may not hold up. The source holds several records for some structures; these can differ, active in one and inactive in another.
# Biological target: Lysine-specific demethylase 4A (Homo sapiens) (UniProt O75164)
# Test: qHTS Assay for Inhibitors of JMJD2A-Tudor Domain; also: nearly all actives have a fitted effect of over 50% in size
# Conditions: AlphaScreen JMJD2A-Tudor / H3K4me3 peptide binding; activity change, negative = inhibition: at 114 µM (top of the series)
# % is scaled to controls: 0 for no effect and ±100 for the full control effect; potency is read from the fitted curve at half-maximal effect; tags tell the direction and shape of the fitted curve.
# Chain of UniProt O75164 (O75164 whole entry, looked up, the tested form may be a part): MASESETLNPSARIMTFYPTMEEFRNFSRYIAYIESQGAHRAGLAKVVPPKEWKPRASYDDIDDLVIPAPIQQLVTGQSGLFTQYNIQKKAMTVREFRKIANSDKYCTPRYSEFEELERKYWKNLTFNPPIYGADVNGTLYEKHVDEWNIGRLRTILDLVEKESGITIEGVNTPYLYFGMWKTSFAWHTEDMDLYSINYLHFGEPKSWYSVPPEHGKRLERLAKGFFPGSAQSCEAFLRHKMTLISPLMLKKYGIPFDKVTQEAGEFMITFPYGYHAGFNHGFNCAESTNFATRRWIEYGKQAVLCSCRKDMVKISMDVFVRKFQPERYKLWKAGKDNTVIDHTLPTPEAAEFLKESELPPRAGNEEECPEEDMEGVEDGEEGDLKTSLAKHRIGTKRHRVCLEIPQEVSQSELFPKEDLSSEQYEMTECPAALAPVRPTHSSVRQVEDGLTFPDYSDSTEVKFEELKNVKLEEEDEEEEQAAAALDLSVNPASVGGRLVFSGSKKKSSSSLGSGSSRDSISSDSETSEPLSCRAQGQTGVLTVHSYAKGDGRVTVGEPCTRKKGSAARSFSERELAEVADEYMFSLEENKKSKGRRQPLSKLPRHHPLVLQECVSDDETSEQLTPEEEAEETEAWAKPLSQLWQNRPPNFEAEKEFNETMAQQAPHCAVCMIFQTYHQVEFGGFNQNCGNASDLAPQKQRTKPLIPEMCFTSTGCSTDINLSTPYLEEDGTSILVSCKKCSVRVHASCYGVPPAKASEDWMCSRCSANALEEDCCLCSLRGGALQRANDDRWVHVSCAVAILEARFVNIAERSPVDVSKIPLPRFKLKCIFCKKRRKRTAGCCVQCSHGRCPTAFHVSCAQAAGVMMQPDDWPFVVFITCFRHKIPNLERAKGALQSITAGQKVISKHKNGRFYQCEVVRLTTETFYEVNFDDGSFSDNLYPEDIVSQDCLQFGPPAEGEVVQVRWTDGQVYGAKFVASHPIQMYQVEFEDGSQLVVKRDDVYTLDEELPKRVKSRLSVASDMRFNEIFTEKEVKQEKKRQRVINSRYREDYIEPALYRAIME
Structure (SMILES),Potency,"activity change, negative = inhibition"
O=C(C=C(O)c1ccc(Cl)cc1)C(=O)NNC(=O)C(O)(c1ccccc1)c1ccccc1,"inconclusive: 25.1 µM [inhibitor, full curve]",
COc1ccc(OC)c(Nc2nc(N(C)c3ccccc3)nc(N)c2[N+](=O)[O-])c1,"inconclusive: 11.2 µM [inhibitor, full curve]",
CCOC(=O)C1=C(CN2CCN(c3ccc(F)cc3)CC2)NC(=O)NC1c1cccs1 (centres undefined),"inconclusive: 79.4 µM [inhibitor, partial curve]",
C=CCN1C(=O)/C(=C\c2ccc(Oc3nc(N4CCOCC4)nc(N4CCOCC4)n3)c(OC)c2)SC1=S,"inconclusive: 4.47 µM [inhibitor, full curve]",
CN(C)c1ccc(NC(=O)Cn2nnc3sc4c(c3c2=O)CCC(C(C)(C)C)C4)cc1 (centres undefined),"inconclusive: 10 µM [inhibitor, full curve]",
O=S(=O)(c1ccc(Cl)cc1)c1nnn2c1nc(NC1CCCCC1)c1sccc12,,inactive: -35.9%
O=C1COc2ccc(-c3csc(=Nc4ccc(OC(F)F)cc4)n3CC3CCCO3)cc2N1 (centres undefined),"inconclusive: 14.1 µM [inhibitor, partial curve]",
Clc1nnc2c3ccccc3ccn12,"inconclusive: 100 µM [inhibitor, partial curve, poor fit]",
O=S(=O)(c1ccc2nc(Nc3ccccc3)ccc2c1)N1CCCCC1,active: 28.2 µM,
COc1ccc(C(C)(C)C)cc1NC(=O)C1=CC=CN2CCS(=O)(=O)N=C12,,inactive: -9.8%
CN1CCCC1CCNc1ccc2sc3ccccc3c(=O)c2c1 (centres undefined),"inconclusive: 50.1 µM [inhibitor, partial curve]",
CN(C)c1ccc(CNC(=O)CN2C(=O)CSc3ccc(S(=O)(=O)N4CCCC4)cc32)cc1,"inconclusive: 44.7 µM [inhibitor, partial curve]",
NS(=O)(=O)c1cccc(NC(=O)COC(=O)/C(=C/c2cccs2)c2cccs2)c1,"inconclusive: 35.5 µM [inhibitor, partial curve]",
Cc1cc(-c2ccc3c(c2)COc2c4ccccc4nn2-3)on1,"inconclusive: 79.4 µM [inhibitor, single point]",
COc1ccc(NC(=O)CSC2=Nc3ccccc3N=C(c3ccc(F)cc3)C2)cc1OC,,inactive: -4.47%
CN1CCC(C(=O)C(=O)O)C1=O (centres undefined),active: 20 µM,
C=CC[C@@H](CC(=O)N(CCO)Cc1ccccc1)C(=O)NC[C@H](OC(=O)[C@@H](CC=C)CC(=O)OC(C)(C)C)c1ccccc1,,inactive: -25.9%
Cc1ccc(C)c2c1cc(C)c1nnc(SCC(=O)Nc3cccc(C(=O)O)c3)n12,active: 12.6 µM,
CC(=O)C[C@H]1c2cc(F)ccc2S(=O)(=O)N1c1ccc(N(C)C)cc1,"inconclusive: 50.1 µM [inhibitor, partial curve]",
Cc1ccc2nc(SCC(=O)NCc3ccco3)[nH]c2c1,"inconclusive: 50.1 µM [inhibitor, partial curve]",
Cc1c(C(=O)N2CCN(S(=O)(=O)c3ccc(F)cc3)CC2)oc2ccccc12,,inactive: -14.9%
CC1OC(Nc2ccc(N=Nc3ccccc3)cc2)C(O)C(O)C1O (centres undefined),"inconclusive: 56.2 µM [inhibitor, partial curve]",

Structure (SMILES),Potency,"activity change, negative = inhibition"
C=CCn1c(CSc2nnc(-c3ccccc3)n2C)n[nH]c1=S,active: 10 µM,
CNC(=O)c1[nH]cnc1C(=O)Nc1ccccc1C,"inconclusive: 5.01 µM [inhibitor, full curve, poor fit]",
CCCN(CCO)Cc1cccc(Br)c1,active: 4.47 µM,
CC(=O)C1=C(C)NC2=C(C(=O)c3ccccc32)C1c1ccccc1 (centres undefined),"inconclusive: 28.2 µM [inhibitor, partial curve]",
CCOc1ccc(S(=O)(=O)N2CCOCC2)cc1NC(=O)C1CSC2(C)CCC(=O)N12 (centres undefined),,inactive: -2.07%
CCc1ccc(CCC(=O)Nc2nc(CC(C)=O)ns2)o1,"inconclusive: 89.1 µM [inhibitor, partial curve]",
CC1CCN(S(=O)(=O)c2ccc3c(ccc(=O)n3CC(=O)NCc3ccccc3Cl)c2)CC1,"inconclusive: 3.98 µM [inhibitor, single point]",
CC(C)NC(=O)Nc1cccc2c1O[C@H](CN(C)C(=O)NC(C)C)[C@@H](C)CN([C@H](C)CO)C2=O,,inactive: -7.53%
Cc1ccc(S(=O)(=O)N2CCCCC2)cc1C(=O)NC1CC(C)(C)NC(C)(C)C1,"inconclusive: 12.6 µM [inhibitor, partial curve]",
CC1CN(Cc2ccc(C#N)cc2Cl)CC(C)O1 (centres undefined),"inconclusive: 89.1 µM [inhibitor, single point]",
Cc1ccc(NC(=O)c2sccc2-n2cccc2)c(C)c1,"inconclusive: 50.1 µM [inhibitor, partial curve]",
COc1ccc(/C=N\Nc2ccc([N+](=O)[O-])cc2[N+](=O)[O-])c(C(=O)O)c1OC,active: 50.1 µM,
Cc1cc(C(=O)CSc2nnc(N)s2)c(C)n1Cc1ccco1,,inactive: -5.54%
COCCCNCc1cc(C)n(-c2cc(S(=O)(=O)N3CCOCC3)ccc2N2CCCC2)c1C,active: 79.4 µM,
CC(C(=O)N1c2ccccc2CCc2ccccc21)n1nnc(-c2ccc(N(C)C)cc2)n1 (centres undefined),"inconclusive: 39.8 µM [inhibitor, partial curve]",
CCc1nnc(NS(=O)(=O)c2ccc(NC(=O)/C=C/c3ccc(F)cc3)cc2)s1,,inactive: -10.4%
CCOc1ccc(NCc2cccn2-c2nnc(N3CCC(C(=O)NCCCN4C(C)CCCC4C)CC3)s2)cc1 (centres undefined),active: 56.2 µM,
CCOC(=O)[C@H](CCc1ccccc1)N[C@@H](C)C(=O)N1CCC[C@H]1C(=O)O,active: 50.1 µM,
CCC(c1nnnn1C1CCCC1)N1CCN(c2cccc(OC)c2)CC1 (centres undefined),"inconclusive: 100 µM [inhibitor, partial curve, poor fit]",
O=C(Nc1nc(-c2ccco2)c(-c2ccco2)s1)c1ccco1,active: 50.1 µM,
COCCN1C(=O)C(O)=C(C(C)=O)C1c1ccc(F)cc1 (centres undefined),active: 39.8 µM,
Cc1ccc2c(nc3s/c(=C/c4cccs4)c(=O)n32)c1C,"inconclusive: 56.2 µM [inhibitor, partial curve, poor fit]",
